This note sets out measurements from PubChem BioAssay AID488969 (Vanderbilt High Throughput Screening Facility, 2010).

Structures are written as SMILES. Over roughly 110,000 compounds, “z-score” has its median near -0.1; the highest 2% begin near 2. The list shows a part of the results.

The target in this test is Metabotropic glutamate receptor 8 (Rattus norvegicus) (UniProt P70579). The test is described as follows: mGluR8 Gi/Go-coupled signaling modulation – cell-based, rat, thallium flux, HTS, primary screen (AID 488969). The note with it: HEK293 rat mGluR8, GIRK (G protein-gated inwardly rectifying potassium channel) thallium flux, FluoZin2; at 10 µM; stronger effect = higher value; submaximal glutamate (EC20) added with thallium.
UniProt P70579, sequence (P70579 whole entry, looked up): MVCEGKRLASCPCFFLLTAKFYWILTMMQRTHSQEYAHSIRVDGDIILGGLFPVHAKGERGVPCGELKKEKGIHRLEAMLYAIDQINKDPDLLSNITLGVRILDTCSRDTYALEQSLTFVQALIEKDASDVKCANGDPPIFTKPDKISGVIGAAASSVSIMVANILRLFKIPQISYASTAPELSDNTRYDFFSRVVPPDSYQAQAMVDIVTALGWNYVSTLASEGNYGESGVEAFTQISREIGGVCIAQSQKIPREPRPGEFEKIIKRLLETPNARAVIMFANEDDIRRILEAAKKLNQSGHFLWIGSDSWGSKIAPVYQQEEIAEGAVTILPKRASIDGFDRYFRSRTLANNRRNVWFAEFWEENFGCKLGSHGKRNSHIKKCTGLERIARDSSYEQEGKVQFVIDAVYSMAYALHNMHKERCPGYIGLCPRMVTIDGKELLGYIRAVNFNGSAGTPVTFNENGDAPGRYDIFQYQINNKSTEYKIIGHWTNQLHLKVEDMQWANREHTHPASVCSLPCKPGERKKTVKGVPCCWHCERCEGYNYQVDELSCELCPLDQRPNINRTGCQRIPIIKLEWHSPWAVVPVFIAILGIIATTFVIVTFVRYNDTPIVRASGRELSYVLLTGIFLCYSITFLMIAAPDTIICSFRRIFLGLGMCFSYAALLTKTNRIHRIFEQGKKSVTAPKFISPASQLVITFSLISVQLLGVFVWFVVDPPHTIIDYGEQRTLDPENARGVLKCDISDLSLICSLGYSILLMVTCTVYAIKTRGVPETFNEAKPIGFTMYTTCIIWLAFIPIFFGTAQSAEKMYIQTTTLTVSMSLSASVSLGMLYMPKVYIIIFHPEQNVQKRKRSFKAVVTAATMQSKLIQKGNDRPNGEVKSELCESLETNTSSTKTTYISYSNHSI
`O=C(Cn1c(NCCO)nc2ccccc21)NCCc1ccc(F)cc1` came in with a z-score of 0.252.
In the case of `COC(=O)c1nn(-c2ccccc2)c(Sc2ccc(OC)cc2)c1/C=N/O` it was -0.214; in that of `CC(C)(C)C(=O)CN1CCN(C2c3ccccc3-c3ccccc32)CC1`, -0.125.
Compound `Cc1ccc(NC(=O)CSc2nc(O)cc(=O)n2C)cc1` came in with a z-score of -0.222.
The same measure for `COc1cccc(NC(=O)N2CCN(c3cccc(C)c3)C(C)C2)c1` (stereo not drawn): 0.0155.
The same measure for `C/C(CC(=O)N1CCN(C=O)CC1)=N\NC(=O)c1cc2ccccc2cc1O`: -0.15; for `COc1cc(NC(=O)c2ccc(OC)c([N+](=O)[O-])c2)ccc1NC(=O)c1cccs1`: -0.21.
The same measure for `CCOc1ccc(C(=O)NC(Cc2ccccc2)C(=O)OC)cc1` (stereo not drawn): -0.262; for `O=C(Nc1ccc(N=Nc2ccccc2)cc1)c1ccc(Cl)cc1Cl`: -0.0425.
`Cc1sc(-n2c(C)ccc2C)c(C#N)c1C` had a z-score of 0.418.
`COc1cccc(NC(=S)NCc2cccnc2)c1` gave a z-score of -0.158.
As to `Cc1ccc(C(=O)NCCc2nnc(SCC(=O)Nc3nc(-c4ccccc4)cs3)n2C)cc1`, the z-score was 0.153.
`COc1ccc(CCNS(=O)(=O)c2ccc3c(c2)CC(C)N3C(C)=O)cc1OC` (stereo not drawn): the z-score was -0.0843.
`Cc1cc(Oc2ccc(=O)n(C)n2)nc(Oc2ccc(=O)[nH]n2)n1` had a z-score of 0.295.
In the case of `CC1=C(C(=O)N2CCCCC2)C(c2cccs2)NC(=O)N1` (stereo not drawn) it was -0.718.
In the case of `CCN(CC)S(=O)(=O)c1cc(Br)c(C)cc1OC` it was -0.159.
The same measure for `O=C(CN1C(=O)NC2(CCCCCC2)C1=O)NCc1ccco1`: -0.253; for `NC(=O)C1CCCN(C(=O)c2ccc(Cl)cc2)C1` (stereo not drawn): 0.0443; for `O=[N+]([O-])c1ccc(NC(=S)NCCc2ccc(Cl)cc2)cc1`: 0.129.
Compound `CCN1CCn2c1nc(N1CCOCC1)nc2=O` registered a z-score of -0.847.
The same measure for `Cc1nc(N2CCC(C)CC2)c2oc3ccccc3c2n1`: -0.227.
The same measure for `CC(C)OC(=O)CC(=O)CSc1nc2c(c(-c3cccs3)c1C#N)CCC2`: -0.238; for `CC1(C)c2ssc(=S)c2-c2ccccc2N1C(=O)c1ccco1`: -0.0473; for `Cc1cc(C(=O)N/N=C/c2ccccc2Br)no1`: 0.19.
The same measure for `CCC(=O)NC(=S)Nc1ccccc1C(F)(F)F`: 0.0622; for `CCn1nnnc1SCC(=O)c1ccc(C)cc1`: 0.138; for `COc1ccc(CCNC(=O)NC(C(F)(F)F)C(F)(F)F)cc1OC`: -0.927.
Compound `C1CCc2c(nc3nnnn3c2NC2CCCC2)C1` gave a z-score of -0.0732.
The same measure for `COc1cccc(CN2C(=O)CCC2(C)C(=O)NC2CCCCCC2)c1` (stereo not drawn): 1.5; for `CC(NC(=O)CSc1nc2ccccc2c(=O)n1CCCO)c1ccccc1` (stereo not drawn): 1.01; for `CCN(CCNC(=O)CC1Oc2ccccc2NC1=O)c1ccccc1` (stereo not drawn): 0.299.
Compound `CCSc1cnc(-c2ccccc2)n1CC` came in with a z-score of 0.456.
The same measure for `CCOc1ccc2nc(/N=C/c3nc(-c4ccc(Br)cc4)oc3O)sc2c1`: 0.754; for `CCCCOC(=O)CCc1nc2ccccc2[nH]c1=O`: -0.0101; for `COc1ccc(Nc2sc(C(=O)c3ccc(Cl)cc3)c(N)c2C(=O)Nc2ccccc2OC)cc1`: 0.241.
With `Cc1ccc(NS(=O)(=O)c2ccc3c(c2)oc(=O)n3C)cc1F`, the z-score amounted to 0.683.
The same measure for `N#Cc1ccc(CSc2nnc(Cc3cccs3)n2Cc2ccco2)cc1`: -0.393; for `COCCn1c(SCC(=O)Nc2cccc(C(=O)OC)c2)nc2ccccc2c1=O`: -0.907.
Compound `c1ccc(N2CCN(Cc3cn4cccnc4n3)CC2)cc1` registered a z-score of 0.904.
In the case of `O=C(CC(=O)NC1CCCCC1)N/N=C/c1ccccc1Cl` it was -0.318; in that of `Cc1ccc(CNC(=O)Cc2ccc(-n3cccc3)cc2)cc1`, 0.0794.
`COC(=O)c1ccccc1NC(=S)NC(=O)CC(C)C` returned a z-score of 0.252.
`CCc1c(C)nc(/N=C(/NC(=O)c2ccccc2)Nc2ccccc2OC)[nH]c1=O`: the z-score is -0.283.
With `CCOC(=O)c1oc2ccc(S(=O)(=O)n3nc(-c4ccc(Cl)cc4)cc3N)cc2c1C`, the z-score was -0.324.
In the case of `COc1cc(/C=N\NC(=O)c2sc(N)nc2C)cc(OC)c1OC` it was -0.22.
The compound `CC(c1ccco1)N(Cc1ccco1)C(=O)Nc1ccccc1` (stereo not drawn) came in with a z-score of -0.491.
Turning to `N=c1c2c(n(Cc3ccc(Cl)c(Cl)c3)c3c1CCC3)CCCC2`, the z-score is -0.537.
The same measure for `CCOC(=O)c1ccc(-n2ccnc2)c(NC(=O)c2cccc(Br)c2)c1`: -0.152; for `CCn1c(CNc2nc(-c3ccccc3)cs2)nnc1SCC(=O)NCc1ccccc1`: -0.268.
As to `Cc1ccc(C(=O)N2c3ccc(F)cc3CCC2C)o1` (stereo not drawn), the z-score is -0.571.
As for `CCN1CCN(c2cc(C)c3cc(NC(=O)c4ccncc4)ccc3n2)CC1`, the z-score was found to be 1.22.
The same measure for `O=C(CSc1nc2ccccc2[nH]1)N/N=C/C=C/c1ccccc1[N+](=O)[O-]`: -0.487; for `CC1(C)CC2(CC(c3cccs3)c3cc(Cl)c(O)cc3O2)NC(=S)N1` (stereo not drawn): -0.38; for `CCN(CC)CCCNC(=O)CC1Sc2ccccc2NC1=O` (stereo not drawn): -0.0404.
Compound `O=c1cnn(-c2ccc(Cl)cc2Cl)c(-c2ccccc2)c1` displayed a z-score of 0.0812.
`Cc1nnc(SCC(=O)NCc2ccc3c(c2)OCO3)s1` gave a z-score of -0.348.
In turn, `CCOC(=O)C1CCN(C(=O)Cn2cccc2C(=O)c2ccccc2)CC1` showed a z-score of -0.187.
In turn, `Cn1cc(S(=O)(=O)N2CCN(c3ccccc3F)CC2)c(=O)n(C)c1=O` gave a z-score of 0.09.
Consider `O=C(Cn1nnc(-c2cccc(C(F)(F)F)c2)n1)NC(=O)NCc1ccco1`, for which the z-score is -0.158.
The same measure for `COc1ccccc1-c1noc(-c2cccs2)n1`: -0.201; for `CC(Sc1nnc2c(n1)C1(C)CCC2C1(C)C)C(=O)Nc1ccccc1` (stereo not drawn): -0.0288; for `Cc1ccc(SCCNC(=S)Nc2ccc(C)cc2C)cc1`: -0.0168.
In the case of `CCOCCCNC(=S)Nc1cc(C)cc(C)c1` it was -0.0698; in that of `O=C(CCSCCc1ccccn1)Nc1nccs1`, 0.34; in that of `COc1ccc(C(=O)CSc2n[nH]c(-c3ccncc3)n2)cc1[N+](=O)[O-]`, -0.176.
`COc1ccc2oc(=O)c(C(=O)n3ccc(C)n3)cc2c1` gave a z-score of -0.118.
Turning to `CCc1c(O)nc(SCC(=O)Nc2ccc(C)cc2)n(C2CCCCC2)c1=O`, the z-score is -0.292.
The same measure for `Cc1ccc(S(=O)(=O)NCC(=O)N/N=C/c2ccc(Cl)cc2)cc1`: -0.257.
In the case of `CSc1nc2ccc(NC(=O)C3CC(=O)N(Cc4ccccc4)C3)cc2s1` (stereo not drawn) it was -0.391; in that of `COCCCn1c(-c2ccc(Cl)cc2)n[nH]c1=S`, -0.927.
In the case of `C/C(=N\NC(=S)NCc1ccccc1)c1ccc(Cl)cc1` it was 0.101; in that of `CCOC(=O)C1=C(O)/C(=C/c2cn(CC(=O)NCC3CCCO3)c3ccccc23)SC1=Nc1ccc(C)cc1` (stereo not drawn), -0.194.
`COc1cccc(-c2nn(-c3ccccc3)cc2C(=O)NCC(=O)O)c1` yielded a z-score of -0.436.
